Assay results: patent US20020012979A1, “VITAMIN C PRODUCTION IN MICROORGANISMS AND PLANTS” (priority 1998, published 2002)

Experiments:
Strain UV77-247 [1] = assay: Conversion of compounds to AA by growing cells of strain UV77-247; assay type: cell-based, Prototheca; conditions: for Ascorbic Acid, 25.5h: growing cells UV77-247, 25.5h; for Ascorbic Acid, 44h: growing cells UV77-247, 44h; for AA/A620: growing cells UV77-247, time not printed for this column
Description: (§1) For secondary screening of flask cultures, cells were inoculated into 50 mL of standard flask medium in 250 mL baffled shake flasks, and incubated on a rotary shaker at 180 rpm until glucose depletion (24-48 hours). A second series of flasks of Mg-sufficient standard medium was inoculated from the first set to a cell density of 0.15 A620, and incubated for 24 hours. A third series of Mg-limiting flask medium was inoculated from the second set by a 1/50 dilution and incubated for 96 hours. Flasks were sampled for AA analysis and cell density measurements during this time as required. Aliquots for supernatant AA analysis were centrifuged at 5000×g for 5 min. Aliquots for total whole broth AA analysis were first extracted for 15 min with an equal volume of 5% trichloroacetic acid (TCA) before centrifugation. Aliquots of the resulting supernates were removed for either colorimetric assay or HPLC analysis.
(§2) For colorimetric assay of AA, a modification of the method of Omaye, et al. (1979. Meth. Enzymol. 62:3-11) was used. Twenty-five μL aliquots of culture supernates were added to wells of 96-well microplates, and 125 μL of color reagent was added. The color reagent consisted of four parts 0.5% aqueous 2,2′-dipyridyl and one part 8.3 mM ferric ammonium sulfate in 27% (v/v) o-phosphoric acid, the two components being mixed immediately before use. After one hour, the absorbance at 520 nm was read. AA concentration was calculated by comparison of the absorbances of AA standards.
(§3) HPLC analysis was based on that of Running, et al., (1994). Supernates were chromatographed on a Bio-Rad HPX-87H organic acid column (Bio-Rad Laboratories, Richmond, Calif.) with 13 mM nitric acid as solvent, at a flow rate of 0.7 mL/min at room temperature. Detection was at either 254 nm using a Waters 441 detector (Millipore Corp., Milford, Mass.), or at 245 nm using a Waters 481 detector. This system can distinguish between the L- and D-isomers of AA.
(§4) Cells were washed twice and resuspended in complete medium with the glucose substituted by one of the compounds listed below. Cell suspensions were incubated for 24 hours at 35° C. with shaking, and the entire suspension was extracted with TCA as above and assayed for AA.

Strain UV77-247 [2] = assay: Conversion of compounds to AA by resting cells of strain UV77-247; assay type: cell-based, Prototheca; conditions: for Ascorbic Acid, 25.5h: resting cells UV77-247, 25.5 h; for Ascorbic Acid, 30 h: resting cells UV77-247, 30 h; for Ascorbic Acid, 47 h: resting cells UV77-247, 47 h
Description: as §1, §2, §3, §4

[3] = substrate 50 mM, resting cells UV77-247, 24 hours
[4] = substrate 50 mM, resting cells UV77-247, 24 hours at 35° C.
[5] = substrate 10 mM, resting cells UV77-247, 24 hours

SMILES | Ascorbic Acid, 25.5h (Strain UV77-247 [1]) [mg/L] | Ascorbic Acid, 44h (Strain UV77-247 [1]) [mg/L] | AA/A620 (Strain UV77-247 [1]) | AA Relative to No Substrate Control (Strain UV77-247 [2]; [3]) | Total AA (Strain UV77-247 [2]; [4]) [mg/L] | AA Relative to No Substrate Control (Strain UV77-247 [2]; [5]) | Total AA (Strain UV77-247 [2]; [5]) [mg/L] | Ascorbic Acid, 25.5h (Strain UV77-247 [2]) [mg/L] | Ascorbic Acid, 30 h (Strain UV77-247 [2]) [mg/L] | Ascorbic Acid, 47 h (Strain UV77-247 [2]) [mg/L]
O=C[C@H](O)[C@H]1OC(=O)[C@@H](O)[C@H]1O [D-glucuronolactone] | 165 | 218 | 44 | −13 | 329 | – | – | – | – | –
O=C1O[C@H]([C@H](O)CO)C(O)=C1O [D-isoascorbic acid] | – | – | – | – | – | −12 | 330 | – | – | –
O=CC[C@@H](O)[C@H](O)[C@H](O)CO [2-deoxy-D-glucose] | 181 | 227 | 47 | – | – | – | – | – | – | –
O=C1O[C@H]([C@@H](O)CO)[C@H](O)[C@@H]1O [L-gulono-γ-lactone] | 152 | 195 | 39 | – | – | – | – | – | – | –
O=C[C@H](O)[C@@H](O)[C@@H](O)[C@H](O)CO [D-galactose] | 185 | 380 | 64 | 200 | 542 | – | – | 352 | 361 | 337
O=C[C@@H](O)[C@@H](O)[C@H](O)[C@H](O)CO [D-mannose] | 228 | 488 | 87 | – | – | – | – | 448 | 462 | 399
O=C1OC(C(O)CO)C(O)C1O [D-gulono-γ-lactone] | – | – | – | 24 | 366 | – | – | – | – | –
O=C(O)[C@H](O)[C@@H](O)[C@H](O)[C@H](O)CO [D-gluconic acid] | 178 | 262 | 52 | −33 | 309 | – | – | – | – | –
O=C1O[C@H](CO)[C@@H](O)[C@H](O)[C@H]1O [D-gluconolactone] | 130 | 190 | 33 | 40 | 382 | – | – | – | – | –
O=C(O)C(=O)[C@@H](O)[C@H](O)[C@H](O)CO [2-keto-D-gluconic acid] | 182 | 255 | 48 | −1 | 341 | – | – | – | – | –
O=C[C@H](O)[C@@H](O)[C@H](O)[C@H](O)CO [D-glucose] | 178 | 398 | 67 | 242 | 584 | 46 | 388 | 395 | 404 | 351
O=CC(=O)[C@@H](O)[C@H](O)[C@H](O)CO [D-glucosone] | 176 | 362 | 64 | 247 | 589 | – | – | 465 | 462 | 354
O=C[C@@H](O)[C@H](O)[C@H](O)[C@@H](O)CO [L-galactose] | 249 | 506 | 112 | 623 | 965 | – | – | 667 | 718 | 620
O=C(O)[C@H](O)[C@@H](O)[C@H](O)[C@@H](O)CO [L-idonate] | 182 | 232 | 49 | −46 | 296 | – | – | – | – | –
O=C(CO)[C@@H](O)[C@H](O)[C@H](O)CO [D-fructose] | 181 | 383 | 65 | 248 | 590 | – | – | 402 | 408 | 367
O=C1O[C@H]([C@@H](O)CO)[C@@H](O)[C@@H]1O [L-galactono-γ-lactone] | 214 | 342 | 68 | 476 | 818 | – | – | 644 | 681 | 749
O=CC(=O)[C@@H](O)[C@H](O)[C@@H](O)CO [L-sorbosone] | 178 | 160 | 34 | 0 | 342 | – | – | – | – | –
